# Test results reported in article PMC12136788.
# The other results are listed elsewhere or left out.
# T1: UNK ZnF1-3 (human, UniProt Q9C0B0 31-174)
# T1 sequence: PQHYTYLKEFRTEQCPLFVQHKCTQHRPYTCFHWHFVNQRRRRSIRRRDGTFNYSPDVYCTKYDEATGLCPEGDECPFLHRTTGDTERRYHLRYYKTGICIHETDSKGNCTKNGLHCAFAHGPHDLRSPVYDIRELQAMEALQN
# B1: chr16:94664741:94664742:+_ENSMUSG00000040785_ENSMUST00000117648|mus_hu|mus_mus_mus_hu_False|18_28 (ssRNA)
# RNA: GGGAGUUCUACAGUCCGACGAUCUGGUACUGAUCUUGGUAGCUGAUAUUCAGGAGAAAGGCUGGCCAAGGGUGUAUAUAUGCUGGUGUACUGGGGCAAACCUGGUACCAUGUUAAUGUACGCUGGUGGUGUCUGGGUGAUAUCCAACAGAGGAUUGAGCAUCA
# B2: chr13:24894569:24894570:+_ENSMUSG00000019132_ENSMUST00000019276|mus_hu|FALSE|FALSE (ssRNA)
# RNA: GGGAGUUCUACAGUCCGACGAUCAGUACCUAAUUCUUAGUUAUUUCAGAUUUCACUAUUGCUAUGUAUUGUCAGUGCUUGUUAUUGAUUACACUUGGUGGUGAGCAUAGAGAAAAGUGCAAAAUCGGUAGAGAAGGAAAGGGACAACAGAGGAUUGAGCAUCA
# B3: chr5:74425352:74425353:-_ENSMUSG00000054814_ENSMUST00000068058|mus_hu|FALSE|FALSE (ssRNA)
# RNA: GGGAGUUCUACAGUCCGACGAUCUUCCUGUUUCUUCUCCUCCUGAAGGAUGUCCGCAAUAGUGUUUAGCAAAUAAUUUAAAAAUUCAUGAGCAUCCUGCUGCAUGUAGUUAUCAAAGAGAUCAUUCUCUUUUCUCAGCCUUGACAACAGAGGAUUGAGCAUCA
# B4: chr2:202488911:202488912:-_ENSG00000155755_ENST00000286196|hu_mus|hu_hu_hu_mus_False|58_78 (ssRNA)
# RNA: GGGAGUUCUACAGUCCGACGAUCAUUGAAACAUUUUUCAUAAUCUCCAGUAGCAUUCAGUAUUAUAGUAACAAAAGAUCUAUUACAAAUACAUGUAUCUUAUAAAAAUACACUUAAAAACACGAGUGGGGAGCGCAGGCGCCACAACAGAGGAUUGAGCAUCA
# B5: chr11:77336104:77336105:-_ENSG00000074201_ENST00000525064|hu_mus|hu_hu_hu_mus_False|48_58 (ssRNA)
# RNA: GGGAGUUCUACAGUCCGACGAUCCUCACACAUUGCUGUGAACAUCGCCUCCAAUGCUGACUUAUCACUGGGCACAAAUCUAAAUUCAGUAAUAGGUUCAACAUCAUCAUUGUCUUCCUCAUCUUCAUCAGAGAGAGGUUCUUUCAACAGAGGAUUGAGCAUCA
# B6: chr15:66169770:66169771:+_ENSG00000103769_ENST00000567671|hu_hu|FALSE|FALSE (ssRNA)
# RNA: GGGAGUUCUACAGUCCGACGAUCGUCCCAUAUCUGUGCCUUUAUUGUUUUUCCAUCAACCUGGAUGCUUCUUGUUGCAAACUCUACUCCAAUGGUGCUCUUGCUUUCCAGAUUAAACUCAUUUCGAGUAAAUCGAGACAGGAGCAACAGAGGAUUGAGCAUCA
# B7: chrX:12734859:12734860:+_ENSMUSG00000031010_ENSMUST00000089302|mus_mus|motif|central (ssRNA)
# RNA: GGGAGUUCUACAGUCCGACGAUCAUCACUGGCAGAUCCUCGGACUAUUUUCUUUGUGUGAAAUCCUGUAGUAAAAAGGAACCGGGCAGCAAGCUGAAUACUAAUCAUAGUGAUUUCUUCUGCUUCAGGAGACAGGUGAUCUUGCAACAGAGGAUUGAGCAUCA
# B8: chr5:135101456:135101457:-_ENSMUSG00000040731_ENSMUST00000036125|mus_hu|FALSE|FALSE (ssRNA)
# RNA: GGGAGUUCUACAGUCCGACGAUCGCCCAACAGUGCACCAUCGUAUGUCAAGGCUUCCUUAAGGGAAUCCACUUCAUCGAAUUCUACAUAGCAGAAUCCUUUAAAUUUAUCUGUGUCUUUGUCUCUGACUAGCCGUACACUCCUCAACAGAGGAUUGAGCAUCA
# B9: chr6:40197388:40197389:+_ENSMUSG00000057716_ENSMUST00000061740|mus_mus|mus_mus_mus_hu_False|28_58 (ssRNA)
# RNA: GGGAGUUCUACAGUCCGACGAUCGAGACACUGGGGUGGAUUUAUUCCACCUCUGUUUGGGUGCUAGCCACUAAGACAGCUAUUUUGGGAUUCAUGGCCUUGAAUAUCAAGAGGAAAAGGAAGAGGAUGGAAAGAGUCAAGAGUCAACAGAGGAUUGAGCAUCA
# B10: chr14:78183846:78183847:+_ENSG00000119705_ENST00000557342|hu_hu|hu_hu_hu_mus_False|38_108 (ssRNA)
# RNA: GGGAGUUCUACAGUCCGACGAUCUCUGUCUCAAAAAUCUUCAUCAGAUGUUUGAGCUCCGUGCAAAGCCUUUGCUCUUUGAGCUUGAACGUGGAUCUUUACUCCAUAAAGCACUGUCAGAAAAGGUAAUUUUUUUUUUAAAGACAACAGAGGAUUGAGCAUCA
# B11: chr12:48362563:48362564:+_ENSG00000134291_ENST00000256686|hu_hu|hu_hu_hu_mus_False|8_8 (ssRNA)
# RNA: GGGAGUUCUACAGUCCGACGAUCUCCGUCAAGCCCUUCGAUAGACCCUUGCGGGGGAAACUGUAAUCACUUUGUAUGGGGAAGGAAAAGAAACGCCAAAAACUUUCCAAAAAGCGGGGGUGGGGUGUCCCAGGCCUGGGAGGUCAACAGAGGAUUGAGCAUCA
# B12: 50829727_50829847_2451_CDS_ENSMUSG00000056592_ENSMUST00000107972|mouse|control|control (ssRNA)
# RNA: GGGAGUUCUACAGUCCGACGAUCACACUCACUACAUAUAUGGUGUUUUUCUCCAGUAUGAAUUUUCGUGUGUAGAUUGAGGGACGAUCGUCGGCUGAAGGCCUUCCCACAUUCGGAACAUGCAUAAGGCGUCUCCCCGGUAUGCAACAGAGGAUUGAGCAUCA
# B13: chr9:58722913:58722914:-_ENSMUSG00000032340_ENSMUST00000068664|mus_mus|motif|central (ssRNA)
# RNA: GGGAGUUCUACAGUCCGACGAUCGCGACAUACACGUUUGCUCCACACCCACUGGAAGGAAGCUGCUAGGCCCCAGCUCAACGGGGACACGACAAGACACACAAUGGUUUAGUUUCCAGAGUCACAGGAAAAUAUAAGACAUAUCAACAGAGGAUUGAGCAUCA
# B14: chr1:29069144:29069145:+_ENSG00000198492_ENST00000541996|perfect_dup|motif|central (ssRNA)
# RNA: GGGAGUUCUACAGUCCGACGAUCUGAGAAGUCAAUCCCACUGGGAAAGAAAUUAAAACCAUGCUGACCAAGAAAUGGAGUGCGGCCGGGGGCUCCUGGUUGCCCAAACAUUGCAUCUGGUAGGAAGUGGGGCUCUCCGUUGCUCAACAGAGGAUUGAGCAUCA
# B15: chr12:105536279:105536280:+_ENSG00000136051_ENST00000332180|hu_mus|hu_hu_hu_mus_True|78_78 (ssRNA)
# RNA: GGGAGUUCUACAGUCCGACGAUCAGCACUGAACAUGUAAUGUAAUCUGGCUGCAUCAACAGCAUUUUCAUAUACAUCAUCUAAAUAAAUCGGGAAGACAGCGCGAUGCCAGUAUAAAAAACAGCAGUCACACUGUGCUUGGACCAACAGAGGAUUGAGCAUCA
# B16: 43452375_43452495_801_CDS_ENSG00000152518_ENST00000282388|human|control|control (ssRNA)
# RNA: GGGAGUUCUACAGUCCGACGAUCAUGGCGAGUCAGGCUGCGCAGCUCGUGGAAGCCAUGCGCGAACUGGCACUUUUCGCCGUACUUGCACGUGCCGCUCUCCUCGAAGGGCCGGCACAGCUCGGUCUUGUAGCGCGUGGAGUUCAACAGAGGAUUGAGCAUCA
# B17: chr19:16212804:16212805:+_ENSG00000167460_ENST00000300933|hu_hu|FALSE|FALSE (ssRNA)
# RNA: GGGAGUUCUACAGUCCGACGAUCAGGAAAUAUGCAAAAGAACAUCACAUCAAGGAUCAAUUAAUUACCAUCUAUUAAUUACUAUAUGUGGGUAAUUAUGACUAUUUCCCAAGCAUUCUACGUUGACUGCUUGAGAAGAUGUUUCAACAGAGGAUUGAGCAUCA
# B18: chr3:149686290:149686291:-_ENSG00000070087_ENST00000452853|perfect_dup|FALSE|FALSE (ssRNA)
# RNA: GGGAGUUCUACAGUCCGACGAUCGCCAAGAGUCAAACCGUUGGUAAAGAAACCUUCCCGGUCUUUUCCUACAAUCAUAUCUAUUUCUAUUGGCGUAAUGCUCUGAAAGACGCCCCCGGCCGUGGCUGCCCAGACGUAUUUGGCCAACAGAGGAUUGAGCAUCA
# B19: 20139645_20139765_1461_CDS_ENSMUSG00000044066_ENSMUST00000050611|mouse|control|control (ssRNA)
# RNA: GGGAGUUCUACAGUCCGACGAUCCUCCUCUUCUGAUGGCCAUCCAGGCGUCACACAGGCCGGGCAGCUAACAUGCUGCCUGCCUCUCUUCUGUCUGGGAAAGGGUGGCUCUUUCUCCUUCGUCUUCAGCUGGGGAGAGCCCAUCAACAGAGGAUUGAGCAUCA
# B20: 38800450_38804603_1062_CDS_ENSG00000143889_ENST00000409328|human|control|control (ssRNA)
# RNA: GGGAGUUCUACAGUCCGACGAUCAUUUCCUCCAUGCAUGUAAGAGGAAGAAGCCUGUGGUAAUGGAUAAGCAACAAGUUCAGGUGUAUCUCGAGAGCCCAUUCUGUAACGACUUGGUAAAGGCAAUAAUGGACCAUGGGAUCCCAACAGAGGAUUGAGCAUCA
# B21: chr10:27425285:27425286:-_ENSG00000136758_ENST00000375972|hu_mus|motif|central (ssRNA)
# RNA: GGGAGUUCUACAGUCCGACGAUCUCUGUCCCGCAAAAGAAACCCCUUCACAAAUGAUGGUGCUAUAUUCUGUGCUUCGGCGGAUCUUUCAGAGGUAGACUGCAAACGUCGUGUCCUUGAUUUCAACGUUUUGAAACCCCGAGACAACAGAGGAUUGAGCAUCA
# B22: chr11:86518203:86518204:-_ENSMUSG00000047126_ENSMUST00000103186|perfect_dup|FALSE|FALSE (ssRNA)
# RNA: GGGAGUUCUACAGUCCGACGAUCGAACAACUCCAGGUGUUCUCUCAUUUUCUGUGGCUUGAAUUUAGAAUACAAAAUAGCUAGCUCUGUGAACAUUCCCAUGUGAGCUCGCUCCAGUCCCAAGGCUGCCUCCAACAUGGUGAUCAACAGAGGAUUGAGCAUCA
# Molecular target: T1, UNK ZnF1-3
# Experiment: nsRBNS (natural sequence RNA bind-n-seq); RBNS binding buffer (assumed for nsRBNS): 25 mM Tris pH 7.5, 150 mM KCl, 3 mM MgCl2, 0.01% Triton X-100, 500 ug/ml BSA, 20 U/ml SUPERase-In, 4 C; UNK is unkempt and MSI1 is Musashi-1; names of the RNAs are library labels; protein concentration not given here; high values mean tight binding
row,Binder,binding signal
1,B1,0.925 enrichment R
2,B2,1.29 enrichment R
3,B3,1.25 enrichment R
4,B4,1.2 enrichment R
5,B5,1 enrichment R
6,B6,0.876 enrichment R
7,B7,1.38 enrichment R
8,B8,1 enrichment R
9,B9,1.54 enrichment R
10,B10,1.05 enrichment R
11,B11,2.13 enrichment R
12,B12,0.719 enrichment R
13,B13,1.31 enrichment R
14,B14,1.27 enrichment R
15,B15,2.56 enrichment R
16,B16,0.439 enrichment R
17,B17,0.404 enrichment R
18,B18,0.967 enrichment R
19,B19,0.617 enrichment R
20,B20,1.34 enrichment R
21,B21,0.818 enrichment R
22,B22,0.821 enrichment R
